# From the antibiotic and cytotoxicity screens of Wong et al. (2023)
# The list shows a part of the results.
# Test system: HepG2
# Assay: cytotoxicity call (relative viability < 0.9)
# Conditions: 10 µM
row,SMILES,cytotoxicity call
1,C[C@@H]1CCCCO[C@H](CN(C)S(=O)(=O)c2cccs2)[C@H](C)CN([C@H](C)CO)C(=O)c2cc(NC(=O)Nc3ccccc3)ccc2O1,inactive
2,C[C@@H]1CCCCO[C@@H](CN(C)C(=O)CCC(F)(F)F)[C@@H](C)CN([C@H](C)CO)C(=O)c2cc(NC(=O)NC3CCCCC3)ccc2O1,inactive
3,c1cc(-c2nn[nH]n2)ccc1OCc1nn[nH]n1,inactive
4,CC(CCc1ccc(O)cc1)NCC(O)c1ccc(O)cc1.Cl (configuration not stated),inactive
5,C[C@H](CO)N1C[C@H](C)[C@@H](CN(C)Cc2ccc(Cl)c(Cl)c2)Oc2ccc(NS(=O)(=O)c3ccc(Cl)cc3)cc2CC1=O,inactive
6,O=C1C2C[C@H]3C=C[C@]2(CN1C1CC1)O3 (some centres not stated),inactive
7,c1csc(CNc2ccc(NCc3cccs3)cc2)c1,inactive
8,CCCNC(=O)Nc1ccc2c(c1)C(=O)N(C)C[C@H](OC)[C@@H](C)CN(Cc1ccc(-c3ccccn3)cc1)[C@H](C)CO2,inactive
9,COc1ccc(NC(=O)Nc2ccc3c(c2)C(=O)N([C@@H](C)CO)C[C@@H](C)[C@H](CN(C)Cc2ccc(C(F)(F)F)cc2)OCCCC[C@@H](C)O3)cc1,active
10,C[C@H]1CN([C@@H](C)CO)C(=O)Cc2cc(NS(C)(=O)=O)ccc2O[C@H]1CN(C)Cc1ccc(C(F)(F)F)cc1,inactive
11,COc1ccc(S(=O)(=O)N(C)C[C@@H]2OCCCC[C@H](C)Oc3ccc(NC(=O)Nc4ccccc4)cc3C(=O)N([C@H](C)CO)C[C@H]2C)cc1,inactive
12,C[C@H]1CCCCO[C@H](CN(C)C(=O)NC2CCCCC2)[C@@H](C)CN([C@@H](C)CO)C(=O)c2cc(NC(=O)Nc3ccc(C(F)(F)F)cc3)ccc2O1,active
